These are yes or no findings as the source states them, for the method shown. Binding seen in cells or lysates may run through a third protein. Some binding calls cover weakened binding; strength is not graded here. Where a sequence is shown, tags or fusion partners need not be part of it.
Legend:
Test in all cases: co-IP; HEK-293 cells overexpressing FLAG-tagged MEIOC or deletion mutants, pre-treated 2 h with 10 μM MG-132; IP with anti-FLAG M2 magnetic beads, western blot with anti-FLAG and anti-YTHDC2
[1] = biological target: T1, FLAG-tagged MEIOC deletion mutant ΔH2 [Ile806-Ser842] (mouse) (UniProt A2AG06)
T1 sequence: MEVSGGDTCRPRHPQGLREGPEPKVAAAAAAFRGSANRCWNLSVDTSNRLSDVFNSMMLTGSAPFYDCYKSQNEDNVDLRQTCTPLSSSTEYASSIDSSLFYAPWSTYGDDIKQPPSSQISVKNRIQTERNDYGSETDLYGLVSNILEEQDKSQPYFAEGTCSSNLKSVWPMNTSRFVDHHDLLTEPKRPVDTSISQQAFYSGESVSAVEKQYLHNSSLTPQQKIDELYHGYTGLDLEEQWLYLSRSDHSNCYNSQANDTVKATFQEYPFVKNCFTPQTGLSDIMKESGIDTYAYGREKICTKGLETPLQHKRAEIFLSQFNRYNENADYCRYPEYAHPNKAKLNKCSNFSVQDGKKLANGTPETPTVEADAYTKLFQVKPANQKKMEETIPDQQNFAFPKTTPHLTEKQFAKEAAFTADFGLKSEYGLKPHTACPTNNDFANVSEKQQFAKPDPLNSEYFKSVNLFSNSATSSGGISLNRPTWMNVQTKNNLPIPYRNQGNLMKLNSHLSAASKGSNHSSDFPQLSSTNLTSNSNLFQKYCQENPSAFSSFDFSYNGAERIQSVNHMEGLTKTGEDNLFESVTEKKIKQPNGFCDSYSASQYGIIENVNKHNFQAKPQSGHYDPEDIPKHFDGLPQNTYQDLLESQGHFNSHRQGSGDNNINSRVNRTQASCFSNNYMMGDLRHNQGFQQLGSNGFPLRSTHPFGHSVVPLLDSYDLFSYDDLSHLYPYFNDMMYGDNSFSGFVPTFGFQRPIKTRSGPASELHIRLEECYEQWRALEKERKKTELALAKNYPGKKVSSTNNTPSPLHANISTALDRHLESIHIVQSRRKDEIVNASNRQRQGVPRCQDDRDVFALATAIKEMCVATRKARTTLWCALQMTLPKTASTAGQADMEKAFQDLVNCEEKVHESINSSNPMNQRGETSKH

[2] = biological target: T2, FLAG-tagged MEIOC deletion mutant ΔC [Tyr716-Lys922] (mouse) (UniProt A2AG06)
T2 sequence: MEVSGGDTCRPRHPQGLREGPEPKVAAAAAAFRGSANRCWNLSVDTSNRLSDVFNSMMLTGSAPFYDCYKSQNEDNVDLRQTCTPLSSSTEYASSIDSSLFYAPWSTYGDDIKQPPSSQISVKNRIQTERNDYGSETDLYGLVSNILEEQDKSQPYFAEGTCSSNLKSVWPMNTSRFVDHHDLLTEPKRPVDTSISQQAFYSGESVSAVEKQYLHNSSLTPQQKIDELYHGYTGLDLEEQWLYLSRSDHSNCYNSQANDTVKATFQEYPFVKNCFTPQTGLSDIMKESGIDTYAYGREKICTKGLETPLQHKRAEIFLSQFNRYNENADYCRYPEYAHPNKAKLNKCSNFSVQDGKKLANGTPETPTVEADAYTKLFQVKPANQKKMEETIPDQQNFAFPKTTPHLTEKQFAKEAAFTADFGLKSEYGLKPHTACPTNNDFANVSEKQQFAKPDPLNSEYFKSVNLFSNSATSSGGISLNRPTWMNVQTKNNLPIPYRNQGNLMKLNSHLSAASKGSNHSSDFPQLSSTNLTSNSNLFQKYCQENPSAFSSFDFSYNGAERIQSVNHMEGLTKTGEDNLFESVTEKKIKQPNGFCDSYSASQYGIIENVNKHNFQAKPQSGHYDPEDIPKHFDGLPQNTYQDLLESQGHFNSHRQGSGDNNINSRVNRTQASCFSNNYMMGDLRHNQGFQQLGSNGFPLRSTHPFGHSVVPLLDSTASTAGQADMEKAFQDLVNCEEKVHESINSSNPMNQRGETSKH

[3] = biological target: T3, FLAG-tagged MEIOC deletion mutant ΔN1 [Glu2-Pro366] (mouse) (UniProt A2AG06)
T3 sequence: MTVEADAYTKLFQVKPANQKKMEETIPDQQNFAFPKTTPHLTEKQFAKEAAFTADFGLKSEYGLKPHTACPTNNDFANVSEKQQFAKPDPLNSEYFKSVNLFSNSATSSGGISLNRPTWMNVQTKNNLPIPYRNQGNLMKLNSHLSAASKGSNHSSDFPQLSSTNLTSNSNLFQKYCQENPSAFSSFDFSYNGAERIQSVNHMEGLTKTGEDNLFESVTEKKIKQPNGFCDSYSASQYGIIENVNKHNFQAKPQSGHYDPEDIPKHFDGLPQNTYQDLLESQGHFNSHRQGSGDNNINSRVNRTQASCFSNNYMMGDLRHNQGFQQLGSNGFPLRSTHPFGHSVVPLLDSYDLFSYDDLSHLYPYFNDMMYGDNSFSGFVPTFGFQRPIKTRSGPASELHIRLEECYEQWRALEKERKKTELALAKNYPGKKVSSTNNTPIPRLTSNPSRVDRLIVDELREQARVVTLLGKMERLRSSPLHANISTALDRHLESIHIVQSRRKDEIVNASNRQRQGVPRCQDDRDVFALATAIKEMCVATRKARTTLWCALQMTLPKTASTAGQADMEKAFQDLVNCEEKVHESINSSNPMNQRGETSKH

[4] = biological target: T4, FLAG-tagged MEIOC deletion mutant ΔN2 [Pro23-Ser715] (mouse) (UniProt A2AG06)
T4 sequence: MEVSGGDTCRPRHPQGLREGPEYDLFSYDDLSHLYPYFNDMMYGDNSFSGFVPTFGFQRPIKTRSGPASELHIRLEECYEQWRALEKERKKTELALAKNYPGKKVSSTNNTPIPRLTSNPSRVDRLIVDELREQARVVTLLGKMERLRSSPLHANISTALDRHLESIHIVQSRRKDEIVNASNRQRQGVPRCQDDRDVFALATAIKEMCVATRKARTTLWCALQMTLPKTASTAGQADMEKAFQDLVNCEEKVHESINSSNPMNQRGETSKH

B1: YTHDC2, in HEK-293 cells (protein, UniProt Q9H6S0 1-1430)
chain: MSRPSSVSPRQPAPGGGGGGGPSPCGPGGGGRAKGLKDIRIDEEVKIAVNIALERFRYGDQREMEFPSSLTSTERAFIHRLSQSLGLVSKSKGKGANRYLTVKKKDGSETAHAMMTCNLTHNTKHAVRSLIQRFPVTNKERTELLPKTERGNVFAVEAENREMSKTSGRLNNGIPQIPVKRGESEFDSFRQSLPVFEKQEEIVKIIKENKVVLIVGETGSGKTTQIPQFLLDDCFKNGIPCRIFCTQPRRLAAIAVAERVAAERRERIGQTIGYQIRLESRVSPKTLLTFCTNGVLLRTLMAGDSTLSTVTHVIVDEVHERDRFSDFLLTKLRDLLQKHPTLKLILSSAALDVNLFIRYFGSCPVIYIQGRPFEVKEMFLEDILRTTGYTNKEMLKYKKEKQQEEKQQTTLTEWYSAQENSFKPESQRQRTVLNVTDEYDLLDDGGDAVFSQLTEKDVNCLEPWLIKEMDACLSDIWLHKDIDAFAQVFHLILTENVSVDYRHSETSATALMVAAGRGFASQVEQLISMGANVHSKASNGWMALDWAKHFGQTEIVDLLESYSATLEFGNLDESSLVQTNGSDLSAEDRELLKAYHHSFDDEKVDLDLIMHLLYNICHSCDAGAVLIFLPGYDEIVGLRDRILFDDKRFADSTHRYQVFMLHSNMQTSDQKKVLKNPPAGVRKIILSTNIAETSITVNDVVFVIDSGKVKEKSFDALNFVTMLKMVWISKASAIQRKGRAGRCRPGICFRLFSRLRFQNMLEFQTPELLRMPLQELCLHTKLLAPVNCPIADFLMKAPEPPPALIVRNAVQMLKTIDAMDTWEDLTELGYHLADLPVEPHLGKMVLCAVVLKCLDPILTIACTLAYRDPFVLPTQASQKRAAMLCRKRFTAGAFSDHMALLRAFQAWQKARSDGWERAFCEKNFLSQATMEIIIGMRTQLLGQLRASGFVRARGGGDIRDVNTNSENWAVVKAALVAGMYPNLVHVDRENLVLTGPKEKKVRFHPASVLSQPQYKKIPPANGQAAAIKALPTDWLIYDEMTRAHRIANIRCCSAVTPVTILVFCGPARLASNALQEPSSFRVDGIPNDSSDSEMEDKTTANLAALKLDEWLHFTLEPEAASLLLQLRQKWHSLFLRRMRAPSKPWSQVDEATIRAIIAVLSTEEQSAGLQQPSGIGQRPRPMSSEELPLASSWRSNNSRKSSADTEFSDECTTAERVLMKSPSPALHPPQKYKDRGILHPKRGTEDRSDQSSLKSTDSSSYPSPCASPSPPSSGKGSKSPSPRPNMPVRYFIMKSSNLRNLEISQQKGIWSTTPSNERKLNRAFWESSIVYLVFSVQGSGHFQGFSRMSSEIGREKSQDWGSAGLGGVFKVEWIRKESLPFQFAHHLLNPWNDNKKVQISRDGQELEPLVGEQLLQLWERLPLGEKNTTD
For B1, the binding [1] was “no binding”, the binding [2] was “no binding” and the binding [3] was “binds”. The binding [4] was “binds”.
